According to PubChem BioAssay AID652104 (National Center for Advancing Translational Sciences (NCATS), 2013):
“And” between values parts separate entries of the source, which are not always exact repeats. Equal values may be shown once. Hit rate of the full screen: of about 410,000 compounds, about 7,200 (1.8%) were called active. The shares of active, inactive and inconclusive entries below differ from those in the screen. The call rests on the fitted dose curve; in most records, active means well fitted activation curve with a large enough effect; inconclusive means small, poorly fitted or top-dose-only effect, or another doubt; inactive means no such curve, though single readings can be large or run the other way. Potencies of inconclusive entries are doubtful fits and often do not repeat.

assay: qHTS of TDP-43 Inhibitors; conditions: TDP-43 expressing yeast growth rescue, BacTiter-Glo, 24 h; growth rescue (activation): at 46.1 µM (top of the series) unless noted; further: nearly all actives have a fitted effect of over 50% in size; on growth rescue (activation): % of control where 0% means no effect
How it was run: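 Yeast cells expressing TDP-43 under galactose induction are exposed to compounds for 24 hr at 30 deg C. BacTiter-Glo luminescence measures growth, so protective compounds score as activators.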
Potency means the concentration at half of the fitted maximal effect; tags describe the fitted curve by direction and shape.

Potency, inconclusive:
CCCn1c2ccccc2c2cnn(CC(=O)NCc3ccc(OC)cc3)c(=O)c21 1 µM [activator, partial curve]
Cc1cccc(NC(=S)NC2CCCC2)c1 12.6 µM [activator, partial curve]
O=C(O)CCc1ccc(-c2ccc(Br)cc2)n1-c1cccc(O)c1 35.5 µM [activator, single point]
COC(=O)C(Sc1ccc(Cl)cc1)C1SC(=S)N(Cc2ccccc2)C1=O (configuration not stated) 17.8 µM [activator, single point]
O=C1C(=NO)CCc2ccccc21 35.5 µM [activator, partial curve, poor fit]
C/C(=N/NC(=O)c1ccco1)c1ccc(NC(=O)c2ccc(Br)o2)cc1 1.41 µM [activator, partial curve]
O=[N+]([O-])c1ccccc1S(=O)(=O)N1CCSCC1 10 µM [activator, partial curve]
CCC(C)(O)c1[nH]c2ccc(C#N)cc2c1C (configuration not stated) 14.1 µM [activator, single point]
Cc1ccc(Cl)cc1NC(=O)C1CCN(C(=O)c2cnn(-c3ccccc3)c2-n2cccc2)CC1 31.6 µM [activator, partial curve]
COc1ccccc1NC(=O)N1CCN(c2cccc(C(F)(F)F)c2)CC1 22.4 µM [activator, partial curve]
CCOc1ccc2oc(C(=O)NCc3nc4ccccc4[nH]3)c(C)c2c1 20 µM [activator, single point]
N#Cc1sc2nc(N3CCCCC3)c3c(c2c1N)CCCC3 11.2 µM [activator, single point]
Cc1ccc(C(=O)c2ccc([N+](=O)[O-])cc2)c(C)c1 11.2 µM [activator, single point]
CCNC(=S)N1CCN(c2nc(-c3cccc(OC)c3)cs2)CC1 20 µM [activator, single point]
C=C(C)CNC(=S)N/N=C(\C)c1ccc(OC)cc1 12.6 µM [activator, single point]
CN(Cc1ccccc1)c1ccc2nnc(-c3ccccc3)n2n1 35.5 µM [activator, partial curve]
O=C(NC(NC(=S)Nc1ccc(Cl)c(Cl)c1)C(Cl)(Cl)Cl)c1ccco1 (configuration not stated) 15.8 µM [activator, single point]
CN1CCN(c2ncnc3c2ncn3[C@H]2CN(Cc3ccccc3)C[C@@H](CO)O2)CC1 5.62 µM [activator, single point]
COc1ccc(C2OC(=O)Cc3cc(OC)c(OC)cc32)cc1 (configuration not stated) 1.26 µM [activator, full curve, poor fit]
COc1ccc(-c2c(-c3ccsc3)oc3ccc(N4CCOCC4)cc23)cn1 35.5 µM [activator, single point]
CCNC(=S)NNC(=O)Cn1c(=O)c2c(ncn2CCOC)n(Cc2ccccc2)c1=O 0.562 µM [activator, partial curve, poor fit]
CCOc1ccc(CCN2C(=O)C3C4CCC(O4)C3C2=O)cc1OCC (configuration not stated) 35.5 µM [activator, partial curve, poor fit]
O=C(O)[C@@H]1[C@H]2C[C@H]3c4[nH]c5ccccc5c4CCN3C[C@@H]2CC[C@@H]1O 35.5 µM [activator, partial curve, poor fit]
O=[N+]([O-])c1cccc(Oc2ncccc2[N+](=O)[O-])c1 35.5 µM [activator, single point]
O=C(NC1CCCCCC1)C1c2ccccc2C(=O)N1Cc1ccccc1Cl (configuration not stated) 0.316 µM [activator, full curve, poor fit]
CC(C)(c1ccccc1)c1ccc(OCc2ccc(C(=O)O)o2)cc1 25.1 µM [activator, single point]
COc1ccc([C@H]2CC(=O)C=C(c3ccccc3Oc3ccccc3)C2)cc1 6.31 µM [activator, partial curve]
Cc1cc(-c2ccc(C)c(S(=O)(=O)Nc3cccc(C#N)c3)c2)on1 20 µM [activator, partial curve]
O=C(Nc1ccc2c(c1)CCC2)c1cccc(S(=O)(=O)Nc2ccccc2Cl)c1 20 µM [activator, partial curve]
O=C(CCCOC(=O)c1ccc(O)cc1)c1ccccc1 35.5 µM [activator, single point]
Cc1cc2c(cc3c(SCC(=O)Nc4cccc(Cl)c4C)nnc(C)n32)o1 3.98 µM [activator, partial curve]
Cc1nn(C(C)C(=O)Nc2ccccc2Cl)c(=O)c2nn(-c3ccccc3)c(C)c12 (configuration not stated) 15.8 µM [activator, partial curve]
Cn1ncc2c(Nc3ccc(-c4ccccc4)cc3)ncnc21 2.51 µM [activator, full curve, poor fit]
CC(=O)N1c2c(cc(Br)cc2S(=O)(=O)N2CCN(c3ccccc3)CC2)CC1C (configuration not stated) 35.5 µM [activator, single point]
Cc1cccc(/C=C2\Sc3ccc(C(=O)NCC4CCCO4)cc3N(C)C2=O)c1 (configuration not stated) 35.5 µM [activator, single point]
Cc1ccc(OCc2cc(C(=O)NCc3cc(F)ccc3C)no2)cn1 31.6 µM [activator, single point]
CCOC(=O)N1CCN(c2c(-c3ccc(C)cc3)c(=O)c2=O)CC1 11.2 µM [activator, single point]
Cc1ccccc1NS(=O)(=O)c1ccc2[nH]c3c(c2c1)CCCCC3 35.5 µM [activator, single point]
CC(=O)C1=CCC(c2ccccc2)N(S(=O)(=O)c2ccccc2C)C1 (configuration not stated) 25.1 µM [activator, partial curve] and 12.6 µM [activator, partial curve]
COC(=O)CNC(c1ccccc1)c1cc(Br)ccc1NC(=O)c1ccccc1 (configuration not stated) 35.5 µM [activator, single point]
CCc1c(C)nc(SCC(=O)N2CCCCC2CC)[nH]c1=O (configuration not stated) 17.8 µM [activator, single point]
COc1ccc(CN=CC2=C(O)CC(C)(C)CC2=O)cc1 11.2 µM [activator, partial curve]
O=[N+]([O-])c1cc(Cl)ccc1Nc1ccccc1 6.31 µM [activator, partial curve, poor fit]
CCOP(=O)(OCC)C(Nc1ccc(C)cc1)c1ccco1 (configuration not stated) 31.6 µM [activator, partial curve]
Cc1ccc2cc(C#N)c(N3CCCN(C(=O)C4CCCO4)CC3)nc2c1C (configuration not stated) 17.8 µM [activator, single point]
O=[N+]([O-])c1ccccc1Nc1ccc(O)cc1 31.6 µM [activator, single point]
CN(C)C(=O)c1cccc(-c2cnc3c(NC=O)cc(-c4ccc(N(C)C)cc4)cn23)c1 35.5 µM [activator, partial curve]

Potency, inactive:
COc1ccc(OC)c(NC(=O)CCn2cccn2)c1
CCOc1ccc(CCNC(=O)c2ccc3c(c2)nc2n3CCOC2)cc1OCC
CC(C)OCCCNC(=O)CCCn1c(SCC(N)=O)nc2c(sc3ccccc32)c1=O
CN(C(=O)CSc1nc(-c2ccc(C(C)(C)C)cc2)c(C#N)c(=O)[nH]1)C1CCCCC1
COc1cccc(CNC(=O)c2c(C)oc3nc(C)nc(N4CCOCC4)c23)c1
Cc1ccc(C(=O)CNc2ccc(C)c(Cl)c2)cc1
CCOc1ccccc1-c1nc(SCC(=O)c2ccc(OC)c(Br)c2)n[nH]1
Cc1ccc(Cl)cc1N1CCN(C(=O)CCCCCn2c(=O)[nH]c3ccccc3c2=O)CC1
COc1ccccc1N1CCN(C(=O)c2cnc(N3CCCCC3)c3ccccc23)CC1
O=C(O)c1ccc2nc(-c3ccccc3)c(-c3ccccc3)nc2c1
CN(C(=O)CSc1nnc(-c2ccc(Cl)cc2)n1C)C1CCS(=O)(=O)C1 (configuration not stated)
Fc1ccc(N2CCN(c3ncnc4c3nc3n4CCCCC3)CC2)cc1

Potency, active:
CCOC(=O)CSc1nnc2c3ccccc3n(C)c2n1 12.6 µM
O=C(COC(=O)c1ccccc1Br)Nc1nnc(-c2ccccc2)o1 22.4 µM
COc1ccc(C2=CC(=O)C[C@H](c3ccc(OC)cc3)C2)cc1 14.1 µM
O=C1C(=Cc2ccccn2)CCc2ccccc21 17.8 µM
CCC(=NCc1ccc(Cl)c(Cl)c1)c1nc(-c2ccco2)oc1O 14.1 µM
Fc1cccc(CSc2ccc3nnc(-c4cccnc4)n3n2)c1 15.8 µM
CC1=NNC(=O)C1CC(=O)N/N=C/C(Br)=C/c1ccccc1 (configuration not stated) 14.1 µM

Growth rescue (activation), inconclusive:
O=C(Nc1sc2c(c1C(=O)O)CCCCC2)c1ccco1 -91% [activator]
